Measured values from the supplement of paper PMC12632987.
In all, about 4,500 sequences were measured (“median log2 fold change of GCK-ALFA target abundance (FLAG IP / Myc IP barcode read proportion)”: median about 0.078, lowest 2% from about -0.6 on). This is one part of the list.

B1: GBRAP_184_5097 (protein)
chain: KTLERRIVAETLEEAEAQLDAAIDEAAAQGASLLLLLEAEGISEEEIVALVERLGERAAEKGVPAVTLGIDQLLSEETIDKVIEVADKHGIRLVVALPEE
B2: GBRAP_184_5321 (protein)
chain: EVKEVVIEVETEEEAKEKLEEVEKEIKESGKKYRVYIFVKNPTKELLKTIAEKIKEMKEKGIDAEFIVVTLDPVDEELADYAVKLFDEAGARIVLALEDE
B3: GBRAP_11_2713 (protein)
chain: KKELLLEFAEKAEELAKRVKKLIKEGPKEEELKKLAEEAKKLAEEAKKAGLPESIVELVKLAAELLKKAIEDPENVEEYLKEAAAALRVAAGQLLLEAEE
B4: GBRAP_139_3752 (protein)
chain: SELEKKIEEAKKLTEKIPEDPEGSIKALADLLVSVDDEEAEKIAKAAAEVAKKWPFEEFEAYFDKLIDTLLNEYNDEDRADIVEAERNRALAQIAVKEEE
B5: GBRAP_184_5278 (protein)
chain: MVIHVELEAESGEEAIAQVNKAAEEARAKGAKLKLTLLLENASEEEIIALFDKLKELKDEGVIESATVGVDSEDDEEKIDRLIKAADEAGVKLVIAIEEE
B6: GBRAP_78_6723 (protein)
chain: EVEELVEKALEKLDEAAKLSLQLPEDDRAELLDLLSDAMTLLVEAEEKGFDLKLLKEALKLVKEALKLAKKLDSETAKKIAKLLEEAIKLLEEAIKLLEK
B7: GBRAP_160_3993 (protein)
chain: SEKLEKLKKEIKELLEEALKLMTGETPENRLAIARVTSGQILLTLEESELVSDETIEEIDKILDEFVATVAANPNMTDEELKALLEETLKKIFEVIEKNI
B8: GBRAP_9_7181 (protein)
chain: EEEAKKKILKVAEEEGERAIELAPEDKKPIMKELIDKMLKELKAAIADKSKTLEEILELLEEKTDEIVDEMKKVVDEKTYKLIEAELGTAILEAEEIIEE

Biological target: GABARAP, O95166
Sequence (O95166 whole entry, the tested form may be a part): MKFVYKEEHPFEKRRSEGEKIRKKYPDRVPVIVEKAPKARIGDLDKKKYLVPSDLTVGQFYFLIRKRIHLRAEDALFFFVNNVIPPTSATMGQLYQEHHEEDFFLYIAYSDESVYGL
Assay: median log2 fold change of GCK-ALFA target abundance (FLAG IP / Myc IP barcode read proportion) (log2 ratio); each designed protein is fused to an ALFA-tag nanobody in HEK293 cells to bring the named protein to FLAG-tagged glucokinase (GCK); Myc marks an untargeted standard; higher = target protein stabilised (more abundant)
Settings: target protein: 3xFLAG-MCP-GCK-ALFA reporter; HEK293 landing pad (RPLP)
Outline: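 Binders fused to an ALFA nanobody were recombined as a library into HEK293 landing-pad cells, which were induced with 2 μg mL^−1 doxycycline and then transfected to express a FLAG-tagged target and a Myc-tagged standard. After 48 h, circular RNA barcodes recovered by anti-FLAG and anti-Myc immunoprecipitation of lysates were reverse transcribed, amplified and sequenced. Each binder's target abundance is the median log2 ratio of FLAG to Myc barcode read proportions, from barcodes present at ≥10^−7 in both replicates, binders carrying ≥3 barcodes per replicate, a 10^−6 pseudocount and pooled replicates.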

Row | Binder | median log2 fold change
1 | B1 | -0.0834
2 | B2 | -0.167
3 | B3 | 0.0717
4 | B4 | 0.0429
5 | B5 | 0.158
6 | B6 | 0.237
7 | B7 | -0.126
8 | B8 | 0.159
